# Substitutions are numbered along the chain they refer to. Numbers in names are those of the source. Unless stated, no cut-off for active and inactive is given here. Where “and” joins values, the source holds several entries; their conditions need not be identical. Equal values may be shown once.
# B1: huNRG1(S177-F229)(NRGE1D)((G4E)2)::G4::huFcSEFL2 (Pb): Fc fusion of NRG1 variant SEQ ID NO:126 (protein)
# chain: SHLVKCGESHKSFCVNGGECYMVEGSSIPSRYLCKCPNEFTGDRCQEDFMASFGGGGEGGGGEGGGG[letters of human IgG1 Fc with R292C N297G V302C (EU numbers) not shown]
# modifications: huNRG1(S177-F229) (NRGE1D)::(G4S)2::G4::huFcSEFL2 (Pb)
# B2: huNRG1(S177-F229)(NRGE1C)::1KmodT482V, M493L)::huFcSEFL2 (Pb): Fc fusion of NRG1 variant SEQ ID NO:117 (protein)
# chain: SHLVKCGEKHKSFCVNGGECFMIEGPSNPSRYLCKCPNEFTGDRCQEDFMASFGSGSATGGSGSVASSGSGSATHL[letters of human IgG1 Fc with R292C N297G V302C (EU numbers) not shown]
# modifications: huNRG1(S177-F229) (NRGE1C)::1KmodT482V,M493L)::huFcSEFL2 (Pb)
# B3: huNRG1(S177-Q237)(1A1)::GG::huFcSEFL2 (Pb): Fc fusion of NRG1 variant SEQ ID NO:144 (protein)
# chain: SHLVKCGESEKSFCVNGGECYVIEDSSIPSRFLCKCPNEFTGDRCQNVFLASFYKAEELYQGG[letters of human IgG1 Fc with R292C N297G V302C (EU numbers) not shown]
# modifications: huNRG1(S177-Q237)(1A1)::GG::huFcSEFL2 (Pb)
# B4: huNRG1(S177-Q237)(1A12)::GG::huFcSEFL2 (Pb): Fc fusion of NRG1 variant SEQ ID NO:145 (protein)
# chain: B3 chain with G7A, S9K, E10H, I23V, D25R, S26P, F32Y, N47K, V48F, L50M
# modifications: huNRG1(S177-Q237)(1A12)::GG::huFcSEFL2 (Pb)
# B5: huNRG1(S177-Q237)(1A7)::GG::huFcSEFL2 (Pb): Fc fusion of NRG1 variant SEQ ID NO:146 (protein)
# chain: B3 chain with G7A, S9R, E10D, D25H, S26L, I28N, N47K, V48D, L50M
# modifications: huNRG1(S177-Q237)(1B4)::GG::huFcSEFL2 (Pb)
# B6: huNRG1(S177-Q237)(1B4)::GG::huFcSEFL2 (Pb): Fc fusion of NRG1 variant SEQ ID NO:147 (protein)
# chain: B3 chain with S9R, E10D, S12T, Y21F, V22M, I28N, F32Y, N47K, V48D, L50M
# modifications: huNRG1(S177-Q237)(1B4)::GG::huFcSEFL2 (Pb)
# B7: huNRG1(S177-Q237)(1B9)::GG::huFcSEFL2 (Pb): Fc fusion of NRG1 variant SEQ ID NO:148 (protein)
# chain: B3 chain with G7A, S9K, E10H, Y21F, V22M, I23V, S26L, F32Y, N47D, L50M
# modifications: huNRG1(S177-Q237)(1B9)::GG::huFcSEFL2 (Pb)
# B8: huNRG1(S177-Q237)(1C11)::GG::huFcSEFL2 (Pb): Fc fusion of NRG1 variant SEQ ID NO:149 (protein)
# chain: B3 chain with S9K, S12T, V22M, I23V, D25R, S26P, N47K, V48F, L50M
# modifications: huNRG1(S177-Q237)(1C11)::GG::huFcSEFL2 (Pb)
# B9: huNRG1(S177-Q237)(1D10)::GG::huFcSEFL2 (Pb): Fc fusion of NRG1 variant SEQ ID NO:150 (protein)
# chain: B3 chain with G7A, S9R, E10D, S12T, V22M, S26L, F32Y, N47K, V48D, L50M
# modifications: huNRG1(S177-Q237)(1D10)::GG::huFcSEFL2 (Pb)
# B10: huNRG1(S177-Q237)(1D4)::GG::huFcSEFL2 (Pb): Fc fusion of NRG1 variant SEQ ID NO:152 (protein)
# chain: B3 chain with S9R, E10D, S12T, I23V, D25H, I28N, F32Y, N47K, V48F
# modifications: huNRG1(S177-Q237)(1D4)::GG::huFcSEFL2 (Pb)
# B11: huNRG1(S177-Q237)(2E3)::GG::huFcSEFL2 (Pb): Fc fusion of NRG1 variant SEQ ID NO:153 (protein)
# chain: B3 chain with S9K, V22M, D25G, S26L, N47D, L50M
# modifications: huNRG1(S177-Q237)(2E3)::GG::huFcSEFL2 (Pb)
# B12: huNRG1(S177-Q237)(2E4)::GG::huFcSEFL2 (Pb): Fc fusion of NRG1 variant SEQ ID NO:154 (protein)
# chain: B3 chain with E10D, Y21F, V22M, I23V, E24K, D25R, S26P, I28N, F32Y, N47K
# modifications: huNRG1(S177-Q237)(2E4)::GG::huFcSEFL2 (Pb)
# B13: huNRG1(S177-Q237)(2F2)::GG::huFcSEFL2 (Pb): Fc fusion of NRG1 variant SEQ ID NO:155 (protein)
# chain: B3 chain with G7A, S12T, V22M, D25H, S26P, I28N, L50M
# modifications: huNRG1(S177-Q237)(2F2)::GG::huFcSEFL2 (Pb)
# B14: huNRG1(S177-Q237)(2G3)::GG::huFcSEFL2 (Pb): Fc fusion of NRG1 variant SEQ ID NO:156 (protein)
# chain: B3 chain with S9R, E10Q, V22M, I23V, S26L, F32Y, N47K, L50M
# modifications: huNRG1(S177-Q237)(2G3)::GG::huFcSEFL2 (Pb)
# B15: huNRG1(S177-Q237)(2G4)::GG::huFcSEFL2 (Pb): Fc fusion of NRG1 variant SEQ ID NO:157 (protein)
# chain: B3 chain with G7A, S9N, S12T, Y21F, I23V, D25G, S26L, F32Y, N47D, L50M
# modifications: huNRG1(S177-Q237)(2G4)::GG::huFcSEFL2 (Pb)
# B16: huNRG1(S177-Q237)(1D3)::GG::huFcSEFL2 (Pb): Fc fusion of NRG1 variant SEQ ID NO:151 (protein)
# chain: B3 chain with S9N, E10D, Y21F, S26P, F32Y, V48D
# modifications: huNRG1(S177-Q237)(1D3)::GG::huFcSEFL2 (Pb)
# Molecular target: T1, ErbB4 (Rattus norvegicus, UniProt Q62956)
# T1 construct: forming the ErbB2/ErbB4 complex in cardiomyocytes and the ErbB2/ErbB3 complex in Schwann cells; endogenous in cells; host or cells: primary neonatal rat cardiomyocytes (Sprague Dawley pups, 0 to 4 days old)
# Experiment: In vitro phosphorylation of Akt in neonatal rat cardiomyocytes
# Type: cell-based
# Details: Akt (Serine 473) phosphorylation, neonatal rat cardiomyocytes, 15 minutes treatment; listed as huNRG1(S177-F229)(NRGE1D)((G4E)2:G4)::huFcSEFL2 (Pb); read-out: Cardiomyocyte (CM) (ErbB4) Avg EC50
# Procedure: (§1) In Vitro Phosphorylation of Akt in Neonatal Rat Cardiomyocytes and Rat Schwann Cells by Neuregulin Variants
# (§2) Specificity of neuregulin variants towards cardiomyocytes (ErbB4) versus Schwann cells (ErbB3) was tested by measuring Akt activity generated by formation of the ErbB2/ErbB4 and ErbB2/ErbB3 complexes. Upon activation by neuregulin, the ErbB4 and ErbB3 receptors dimerize preferentially with the ErbB2 co-receptor, forming the ErbB2/ErbB4 complex in cardiomyocytes and the ErbB2/ErbB3 complex in Schwann cells, both of which signal through the Akt pathway. Neonatal rat cardiomyocytes were isolated from hearts of Sprague Dawley rat pups at 0 to 4 days old according to manufacturer's protocol using the Neomyt kit and plated on Surecoat plates in NS media containing serum (all from Cellultron Life Technologies, Baltimore, MD). Rat Schwann cells were plated in Poly-D-Lysine coated plates with Dulbecco's modified Eagle's media (DMEM) supplemented with fetal bovine serum (Thermo Fisher) and forskolin (Millipore Sigma).
# (§3) After a 24-hour incubation in a humidified incubator maintained at 37° C. and 5% CO2, cardiomyocytes and Schwann cells were washed with serum free media and incubated an additional 16 hours in DMEM supplemented with bovine serum albumin (Sigma). Both cell lines were then treated with titrations of the neuregulin variant molecules for 15 minutes, upon which cells were lysed in lysis buffer (Meso Scale Discovery (MSD)). For detection of Akt phosphorylation, lysates were added to the Multi-Spot 96-Well 4-Spot Phospho (Serine 473)/Total Akt plates (MSD), incubated according to the manufacturer's protocol and read in the SECTOR Imager 6000 (MSD). For both cell assays, the percent phosphorylation of Akt was calculated by multiplying the phospho Akt signal by 2, then dividing by the phospho Akt signal added to the total Akt signal and then multiplying by 100. The phosphorylation of Akt data points were fitted using a log (agonist) versus response, variable slope (4 parameters) analysis in GraphPad Prism to generate EC50 curves. The CM % agonism reflect the top value of the data points.
# T1 sequence (Q62956 26-1308): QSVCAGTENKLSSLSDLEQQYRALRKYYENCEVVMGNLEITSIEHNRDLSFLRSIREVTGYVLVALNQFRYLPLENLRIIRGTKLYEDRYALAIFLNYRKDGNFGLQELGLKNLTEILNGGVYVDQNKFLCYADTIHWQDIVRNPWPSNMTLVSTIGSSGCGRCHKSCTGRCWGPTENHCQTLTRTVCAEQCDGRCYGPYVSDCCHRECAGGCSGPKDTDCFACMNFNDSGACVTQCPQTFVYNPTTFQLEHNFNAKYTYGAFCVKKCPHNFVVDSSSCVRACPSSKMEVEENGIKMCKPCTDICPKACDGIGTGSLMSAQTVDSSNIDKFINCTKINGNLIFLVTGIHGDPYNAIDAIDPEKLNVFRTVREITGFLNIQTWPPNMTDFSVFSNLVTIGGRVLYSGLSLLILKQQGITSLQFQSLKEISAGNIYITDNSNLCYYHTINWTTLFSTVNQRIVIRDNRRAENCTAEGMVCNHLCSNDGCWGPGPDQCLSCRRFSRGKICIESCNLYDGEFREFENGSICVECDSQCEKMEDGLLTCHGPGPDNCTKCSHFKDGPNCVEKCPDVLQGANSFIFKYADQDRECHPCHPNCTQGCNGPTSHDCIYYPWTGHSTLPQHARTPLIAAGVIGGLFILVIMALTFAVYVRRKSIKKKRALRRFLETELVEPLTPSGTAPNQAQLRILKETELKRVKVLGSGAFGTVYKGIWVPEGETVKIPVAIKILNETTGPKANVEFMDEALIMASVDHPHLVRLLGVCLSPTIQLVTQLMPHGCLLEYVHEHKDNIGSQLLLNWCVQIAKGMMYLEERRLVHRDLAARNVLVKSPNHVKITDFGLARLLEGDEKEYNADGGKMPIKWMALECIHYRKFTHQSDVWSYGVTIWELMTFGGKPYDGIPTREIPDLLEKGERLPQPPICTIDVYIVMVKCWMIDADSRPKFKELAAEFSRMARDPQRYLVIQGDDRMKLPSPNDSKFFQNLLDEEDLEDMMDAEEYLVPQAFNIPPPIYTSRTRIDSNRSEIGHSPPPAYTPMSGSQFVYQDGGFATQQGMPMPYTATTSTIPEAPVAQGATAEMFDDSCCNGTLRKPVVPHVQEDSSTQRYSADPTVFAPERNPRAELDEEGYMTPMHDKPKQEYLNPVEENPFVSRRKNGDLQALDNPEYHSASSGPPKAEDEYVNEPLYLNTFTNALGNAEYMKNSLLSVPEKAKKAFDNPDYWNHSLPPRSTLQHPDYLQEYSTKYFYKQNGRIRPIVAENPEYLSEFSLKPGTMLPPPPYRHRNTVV
# T1 sequence (P06494 23-1257 partner): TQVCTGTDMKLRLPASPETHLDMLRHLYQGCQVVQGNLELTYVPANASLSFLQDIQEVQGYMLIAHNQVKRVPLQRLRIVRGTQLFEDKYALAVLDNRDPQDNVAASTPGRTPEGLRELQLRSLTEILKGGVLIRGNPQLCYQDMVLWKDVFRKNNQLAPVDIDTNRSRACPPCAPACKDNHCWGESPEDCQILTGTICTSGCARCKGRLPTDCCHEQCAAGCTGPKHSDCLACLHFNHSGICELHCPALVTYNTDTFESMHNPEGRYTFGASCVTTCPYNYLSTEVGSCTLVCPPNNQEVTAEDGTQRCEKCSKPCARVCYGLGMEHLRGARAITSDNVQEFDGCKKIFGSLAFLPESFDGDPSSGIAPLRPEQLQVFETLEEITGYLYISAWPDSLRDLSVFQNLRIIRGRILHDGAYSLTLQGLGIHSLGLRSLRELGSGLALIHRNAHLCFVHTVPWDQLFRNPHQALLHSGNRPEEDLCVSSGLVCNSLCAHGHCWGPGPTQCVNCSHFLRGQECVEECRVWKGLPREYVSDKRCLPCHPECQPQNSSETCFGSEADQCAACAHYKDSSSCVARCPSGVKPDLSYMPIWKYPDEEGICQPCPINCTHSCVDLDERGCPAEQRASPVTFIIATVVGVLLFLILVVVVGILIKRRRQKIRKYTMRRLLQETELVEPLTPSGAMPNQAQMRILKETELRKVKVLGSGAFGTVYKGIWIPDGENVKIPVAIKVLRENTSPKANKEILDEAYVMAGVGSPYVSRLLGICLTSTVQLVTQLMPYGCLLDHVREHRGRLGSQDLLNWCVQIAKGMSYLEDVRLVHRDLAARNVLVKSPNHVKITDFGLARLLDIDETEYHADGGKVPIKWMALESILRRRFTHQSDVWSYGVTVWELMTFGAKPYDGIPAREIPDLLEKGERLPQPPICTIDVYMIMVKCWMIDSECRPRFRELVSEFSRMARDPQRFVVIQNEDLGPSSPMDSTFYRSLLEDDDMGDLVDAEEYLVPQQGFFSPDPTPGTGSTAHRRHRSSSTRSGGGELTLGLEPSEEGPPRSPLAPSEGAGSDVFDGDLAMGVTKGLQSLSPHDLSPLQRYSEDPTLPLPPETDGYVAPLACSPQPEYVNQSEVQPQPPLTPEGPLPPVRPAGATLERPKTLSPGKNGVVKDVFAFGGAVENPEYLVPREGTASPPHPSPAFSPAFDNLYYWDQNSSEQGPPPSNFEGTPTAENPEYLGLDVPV
row,Molecule,EC50
1,B1,0.079 nM

# Same assay, conditions: Akt (Serine 473) phosphorylation, neonatal rat cardiomyocytes, 15 minutes treatment; read-out: Cardiomyocyte (CM) (ErbB4) Avg EC50
row,Molecule,EC50
1,B2,0.4 nM
2,B1,0.28 nM
3,B3,0.133 nM
4,B4,0.722 nM
5,B5,0.619 nM
6,B6,0.996 nM
7,B7,1.92 nM
8,B8,1.1 nM
9,B9,0.741 nM
10,B10,0.924 nM and 0.576 nM
11,B11,0.658 nM
12,B12,0.429 nM
13,B13,0.244 nM
14,B14,0.208 nM
15,B15,2.42 nM

# Same assay, conditions: ratio of EC50s Schwann cells/cardiomyocytes
row,Molecule,Selectivity SC/CM
1,B2,>10000
2,B1,>10000
3,B3,69
4,B4,66
5,B5,1616
6,B6,>10000
7,B7,520
8,B8,79
9,B9,>4000
10,B16,>10000 and >6170
11,B11,1521
12,B12,143
13,B13,826
14,B14,292
15,B15,414

# Same assay, conditions: top value of the Akt phosphorylation data points in cardiomyocytes; wild-type control 100
row,Molecule,CM % Agonism AVG
1,B2,75.8%
2,B1,84.6%
3,B3,Full
4,B4,Full
5,B5,Full
6,B6,Full
7,B8,Full
8,B9,Full
9,B10,Full
10,B12,Full
11,B13,Full
12,B14,Full

# Same assay, conditions: top value of the Akt phosphorylation data points in cardiomyocytes; wild-type control 100; listed as huNRG1(S177-F229)(NRGE1D)((G4E)2:G4)::huFcSEFL2 (Pb)
row,Molecule,CM % Agonism AVG
1,B1,88.2%

# Molecular target: T2, ErbB3 (Rattus norvegicus, UniProt Q62799)
# T2 construct: forming the ErbB2/ErbB4 complex in cardiomyocytes and the ErbB2/ErbB3 complex in Schwann cells; endogenous in cells; host or cells: rat Schwann cells
# Experiment: In vitro phosphorylation of Akt in rat Schwann cells
# Type: cell-based
# Details: Akt (Serine 473) phosphorylation, 15 minutes treatment
# Procedure: as §1, §2, §3
# T2 sequence (Q62799 20-1339): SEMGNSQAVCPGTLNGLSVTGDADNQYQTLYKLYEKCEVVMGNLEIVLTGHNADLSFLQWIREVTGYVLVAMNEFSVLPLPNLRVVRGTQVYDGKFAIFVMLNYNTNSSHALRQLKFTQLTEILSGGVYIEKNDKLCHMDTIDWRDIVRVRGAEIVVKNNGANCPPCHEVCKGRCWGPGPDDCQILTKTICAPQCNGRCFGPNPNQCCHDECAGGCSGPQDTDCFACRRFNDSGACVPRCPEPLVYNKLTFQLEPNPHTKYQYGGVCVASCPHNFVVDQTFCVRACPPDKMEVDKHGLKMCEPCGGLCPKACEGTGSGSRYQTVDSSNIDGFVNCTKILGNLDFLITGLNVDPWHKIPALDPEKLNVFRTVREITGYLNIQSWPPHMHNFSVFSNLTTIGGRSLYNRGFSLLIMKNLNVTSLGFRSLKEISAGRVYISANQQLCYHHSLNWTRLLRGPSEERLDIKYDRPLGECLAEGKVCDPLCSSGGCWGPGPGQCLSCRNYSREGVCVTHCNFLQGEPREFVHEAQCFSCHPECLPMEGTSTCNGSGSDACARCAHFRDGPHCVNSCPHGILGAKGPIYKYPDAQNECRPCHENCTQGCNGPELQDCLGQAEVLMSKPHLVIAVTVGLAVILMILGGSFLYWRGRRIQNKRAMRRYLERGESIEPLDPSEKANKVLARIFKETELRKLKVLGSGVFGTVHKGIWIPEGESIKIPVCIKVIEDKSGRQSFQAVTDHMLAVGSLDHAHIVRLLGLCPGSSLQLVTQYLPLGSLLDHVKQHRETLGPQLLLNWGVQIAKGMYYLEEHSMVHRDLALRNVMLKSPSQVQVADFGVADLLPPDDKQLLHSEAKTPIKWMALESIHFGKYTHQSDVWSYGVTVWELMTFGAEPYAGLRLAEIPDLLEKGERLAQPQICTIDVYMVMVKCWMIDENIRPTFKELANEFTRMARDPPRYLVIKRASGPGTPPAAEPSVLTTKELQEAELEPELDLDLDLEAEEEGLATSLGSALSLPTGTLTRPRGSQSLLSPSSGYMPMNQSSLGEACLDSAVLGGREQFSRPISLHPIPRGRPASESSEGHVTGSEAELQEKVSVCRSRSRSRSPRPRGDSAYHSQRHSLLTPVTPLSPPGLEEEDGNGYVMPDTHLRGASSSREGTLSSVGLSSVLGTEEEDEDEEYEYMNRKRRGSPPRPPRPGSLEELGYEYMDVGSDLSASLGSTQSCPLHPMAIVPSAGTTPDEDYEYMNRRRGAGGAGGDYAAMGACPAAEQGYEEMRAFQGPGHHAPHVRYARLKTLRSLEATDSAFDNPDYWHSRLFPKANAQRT
# T2 sequence (P06494 23-1257 partner): as the sequence (P06494 23-1257 partner) above
row,Molecule,Schwann cells (SC) (ErbB3) Avg EC50 (M)
1,B1,inactive

# Same assay, conditions: Akt (Serine 473) phosphorylation, 15 minutes treatment, read-out: Schwann cells (SC) (ErbB3) Avg EC50
row,Molecule,EC50
1,B2,> 10000 nM
2,B1,> 10000 nM
3,B3,9.11 nM
4,B4,47.9 nM
5,B5,1000 nM
6,B6,10000 nM
7,B7,1000 nM
8,B8,87 nM
9,B9,> 3000 nM
10,B16,10000 nM and > 10000 nM
11,B11,1000 nM
12,B12,61.5 nM
13,B13,202 nM
14,B14,60.8 nM
15,B15,1000 nM

# Source: patent US12692294B2, “Engineered NRG-1 variants with improved selectivity toward ErbB4 but not against ErbB3” (Amgen Inc., priority 2021, dated 2026)
